The supplement of paper PMC10369915
The other results are listed elsewhere or left out. Rule as the data show it: active = 3.2 or more and inactive = the rest. The signal is at background level for most entries.

Tests used:
Assay in all cases: enrichment score (SH2-bound / input frequency) (ratio); bacterial display of known human phosphotyrosine sites (pTyr-Var adds point mutants) read by sequencing; higher = stronger binding; tyrosines were phosphorylated by kinases first
Conditions in all cases: peptide library: Human pTyr
[1] = molecular target: SHP2 C-SH2 domain E139D
[2] = molecular target: SHP2 C-SH2 domain wild-type
[3] = molecular target: SHP2 N-SH2 domain L43F
[4] = molecular target: SHP2 N-SH2 domain T42A
[5] = molecular target: SHP2 N-SH2 domain T52S
[6] = molecular target: SHP2 N-SH2 domain wild-type

Measured: enrichment score
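Also: displayed peptides selected on beads carrying the immobilized SH2 domain, with library peptides lacking any tyrosine serving as negative controls.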

B1: KPCD1_HUMAN_432 (peptide)
chain: KEGWMVHYTSKDTLR
inactive: [1] 1.13 | [2] 1.15 | [3] 1.12 | [4] 0.969 | [5] 1.25 | [6] 1.57

B2: KPCD1_HUMAN_502_YA (peptide)
chain: TTANVVAYVGENVVN
inactive: [1] 0.497 | [2] 0.525 | [3] 0.538 | [4] 0.503 | [5] 0.522 | [6] 0.553

B3: KPCD2_HUMAN_717 (peptide)
chain: SVVGTPAYLAPEVLL
inactive: [1] 0.56 | [2] 0.658 | [3] 0.546 | [4] 0.539 | [5] 0.629 | [6] 0.67

B4: KSYK_HUMAN_525 (peptide)
chain: ALRADENYYKAQTHG
inactive: [1] 0.88 | [2] 0.711 | [3] 0.656 | [4] 0.639 | [5] 0.646 | [6] 0.907

B5: AMPD2_HUMAN_145 (peptide)
chain: SELRSAPYEFPEESP
inactive: [1] 0.551 | [2] 0.63 | [3] 0.488 | [4] 0.703 | [5] 0.721 | [6] 0.661

B6: KPCD1_HUMAN_463_YA (peptide)
chain: NDTGSRAYKEIPLSE
inactive: [1] 0.812 | [2] 0.623 | [3] 0.803 | [4] 0.817 | [5] 0.799 | [6] 0.904

B7: KPCD1_HUMAN_502 (peptide)
chain: TTANVVYYVGENVVN
inactive: [1] 0.851 | [2] 1.35 | [3] 0.54 | [4] 0.633 | [5] 0.662 | [6] 0.822

B8: KPCD1_HUMAN_95 (peptide)
chain: KFPECGFYGMYDKIL
inactive: [1] 1.53 | [2] 1.55 | [3] 1.74 | [4] 1.38 | [5] 1.48 | [6] 1.8

B9: KSYK_HUMAN_629 (peptide)
chain: VELRLRNYYYDVVNG
inactive: [1] 1.67 | [2] 1.58 | [3] 1.35 | [4] 1.61 | [5] 1.41 | [6] 1.96

B10: KPCD2_HUMAN_438 (peptide)
chain: NNTTNRYYKEIPLSE
inactive: [1] 1.03 | [2] 0.943 | [3] 0.807 | [4] 0.785 | [5] 0.929 | [6] 0.895

B11: KSYK_HUMAN_525_YA (peptide)
chain: ALRADENYAKAQTHG
inactive: [1] 0.893 | [2] 0.674 | [3] 0.763 | [4] 0.717 | [5] 0.754 | [6] 0.747

B12: KSYK_HUMAN_630_YA (peptide)
chain: ELRLRNAYADVVNGG
inactive: [1] 1.35 | [2] 3.04 | [3] 0.885 | [4] 1.03 | [5] 0.91 | [6] 0.953

B13: KSYK_HUMAN_323 (peptide)
chain: STVSFNPYEPELAPW
inactive: [1] 0.594 | [2] 0.434 | [3] 0.505 | [4] 0.512 | [5] 0.54 | [6] 0.648

B14: KS6A3_HUMAN_529 (peptide)
chain: TITKTVEYLHAQGVV
inactive: [1] 1.13 | [2] 0.995 | [3] 1.05 | [4] 1.05 | [5] 0.901 | [6] 1.2

B15: KPCD1_HUMAN_95_YA (peptide)
chain: KFPECGFYGMADKIL
inactive: [1] 1.39 | [2] 1.06 | [3] 1.41 | [4] 1.26 | [5] 1.32 | [6] 1.42

B16: KSYK_HUMAN_352 (peptide)
chain: TEVYESPYADPEEIR
inactive: [1] 1.06 | [2] 0.83 | [3] 0.784 | [4] 1.08 | [5] 1.07 | [6] 0.945

B17: KPCD_HUMAN_567 (peptide)
chain: IRVDTPHYPRWITKE
inactive: [1] 1.46 | [2] 1.34 | [3] 1.3 | [4] 1.45 | [5] 1.55 | [6] 1.51

B18: KPYR_HUMAN_148 (peptide)
chain: FAGSPLSYRPVAIAL
inactive: [1] 0.851 | [2] 0.843 | [3] 0.786 | [4] 1.02 | [5] 1 | [6] 0.929
